Source: PubChem BioAssay (NCATS)
The inconclusive results got no clear call from the source; some entries with a clear call stand among them for comparison. Potencies of inconclusive entries are doubtful fits and often do not repeat. The source made the active and inactive calls. Calls come from the whole dose curve; as a rule, active = well fitted inhibition curve with a large enough effect; inconclusive = small, poorly fitted or top-dose-only effect; inactive = no such curve, though single readings can be large or run the other way.

Assay: qHTS assay to identify inhibitors of the type 1 interferon - major histocompatibility complex class I in skeletal muscle: Counter screen cell viability and HiBit confirmation (AID 1347412); note: nearly all actives have a fitted effect of over 60% in size
Conditions: iHSKM muscle cells + IFN-b, HiBiT or CellTiter-Glo, 24 h; HiBiT
Source text: Assay Submitter (PI): Travis B. Kinder Ph.D. & James Inglese Ph.D. Assay Development and Screening Technology Laboratory (ADST) National Center for Advancing Translational Sciences (NCATS), Rockville, MD National Institute of Health (NIH), Bethesda, Maryland Idiopathic inflammatory myopathies, collectively referred to as myositis, are a group of rare autoimmune diseases characterized by skeletal muscle inflammation, weakness, and usually accompanied by systemic pathologies of the skin, lungs, or vasculature. Current immunosuppressive therapies and glucocorticoids are often not curative and are accompanied by harsh side effects, especially in children with juvenile myositis. We initiated a drug repurposing and development program to identify more targeted, less toxic therapeutics to treat myositis. Although its cause is not known, muscle from a subset of patients have an abundance of the inflammatory type 1 interferon (IFN) and a down-stream product major histocompatibility complex class I (MHC class I), which are both thought to contribute to damage and weakness. We conducted quantitative high throughput screening on 6,576 compounds (4,679 unique) through a series of cell-based assays to identify those that inhibit the IFN-stimulated expression of MHC class I in muscle precursor cells (myoblasts). The compound identification and evaluation strategy utilized a primary screen with reporter-tagged MHC class I in genome-engineered myoblasts, ATP content counter screen for viability, HLA-ABC immunofluorescence secondary screen, and HLA-B RT-qPCR tertiary screen. The primary screen utilized CRISPR/Cas9 genome-engineering of immortalized human myoblasts, C25cl48, where a pro-luminescent reporter HiBit was fused to the C-terminus of endogenous MHC class I allele HLA-B*08:01 (HLA-B HiBit myoblasts). HiBit is an 11 amino acid fragment of NanoLuc luminescent reporter (Promega Corporation), and when complexed to the larger LgBit fragment, the reconstituted enzyme produces light in the presence of furimazine substrate (Schwinn et al., 2018). Briefly, HLA-B HiBit myoblasts were plated into 1536-well plates, treated with 4.0 ng/ml human IFN-beta and 650 inhibitory compounds identified from primary screening in a 12-point, 1:3 titration with a high final concentration of 46 uM. Compounds were pinned into duplicate plates, with one for HiBit confirmation and one for ATP content viability assay. After 24 hrs of treatment, cells were assayed by either Nano-Glo HiBiT Lytic Detection System (Promega) or CellTiter Glo (Promega), and luminescence measured by a ViewLux 1430 Ultra HTS (Perkin Elmer). References: Schwinn MK, Machleidt T, Zimmerman K, Eggers CT, Dixon AS, Hurst R, Hall MP, Encell LP, Binkowski BF, Wood K V. 2018. CRISPR-Mediated Tagging of Endogenous Proteins with a Luminescent Peptide. ACS Chem Biol 13:467-474. doi:10.1021/acschembio.7b00549
PROTOCOL TABLE (as described by Inglese et al., 2007) SEQUENCE No. (e.g., 1, 2, 3, etc.); […] (e.g., Cells, Incubation, Reagent, etc.); VALUE; DESCRIPTION 1a; Cells; 5 uL; Use a Multidrop Combi (Thermo Scientific) to seed 300 cells/well into 16 Greiner 1536 well white/solid bottom, high base, TC plates in 5 ul/well of iHSKM growth medium (GM) without dexamethasone into columns 1+2. Add metal lids with gas-exchange holes 1b; Cells; 5 uL; Use a Multidrop Combi (Thermo Scientific) to seed 300 cells/well into 16 Greiner 1536 well white/solid bottom, high base, TC plates in 5 ul/well of iHSKM GM without dexamethasone + 4 ng/ml IFN-b into columns 3 - 48. Add metal lids with gas-exchange holes 2; Incubate; 1 hr; Incubate at 37 C, 5% CO2, 95% RH 3; Compounds; 23 nl; Use Pin Tool (Wako) to transfer DMSO control, 92 uM final digitonin cytotoxic control, ruxolitinib IFN-b inhibitor control [High Concentration = 80 uM final, 16-pt, 1:2 in duplicate], and library compounds in DMSO. […]
% is set by controls: 0 for no effect and ±100 for the full control effect; potency is the fitted concentration of half-maximal effect; tags give direction and shape of the fitted curve.

With `CC[C@@H](C)Nc1cc(C(=O)NC2CC3CCC(C2)N3c2ccc(C(=O)C3CC3)cn2)c(C)cc1C(N)=O` (stereo not given in full) as the compound, how does the Potency read?
Its Potency is inconclusive: 0.0625 µM [inhibitor, full curve].

For `COc1cccc2cc(-c3nc(C4CCC(C(=O)O)CC4)n4ncnc(N)c34)[nH]c12` (stereo not given), which Potency is on record?
The Potency was inconclusive: 3.13 µM [inhibitor, full curve].

For `C=CC(=O)Nc1ccc2ncnc(Nc3ccc(OCc4cccc(F)c4)c(Cl)c3)c2c1`, which Potency is on record?
The Potency was inconclusive: 7.01 µM [inhibitor, full curve].

For `C=CC(=O)Nc1cc(Nc2nccc(-c3cn(C)c4ccccc34)n2)c(OC)cc1N(C)CCN(C)C`, which Potency is on record?
Its Potency is active: 24.9 µM.

With `c1cc(-c2cnn3cc(-c4ccc(N5CCNCC5)cc4)cnc23)c2cccnc2c1` as the compound, how does the Potency read?
Its Potency is inconclusive: 39.4 µM [inhibitor, single point].

Which Potency does the source give for `COc1cc(C(=O)NC2CCN(C)CC2)c(F)cc1Nc1ncc2c(n1)N(C1CCCC1)CC(F)(F)C(=O)N2C` here?
The Potency was inconclusive: 14 µM [inhibitor, partial curve].

For `Cc1c(C(=O)N2CCOc3ccc(-c4ccc(N)nc4)cc3C2)ccc(S(C)(=O)=O)c1F`, which Potency is on record?
The Potency was inconclusive: 3.52 µM [inhibitor, full curve].

With `O=C(Cc1ccc(-c2ccc(OCCN3CCOCC3)cc2)cn1)NCc1ccccc1` as the compound, how does the Potency read?
The Potency was inconclusive: 0.198 µM [inhibitor, full curve].

With `CCCCCCCCc1ccc(CCC(N)(CO)CO)cc1` as the compound, how does the Potency read?
Its Potency is inconclusive: 35.2 µM [inhibitor, partial curve, poor fit].

With `CCN(CC)CCCCNc1ncc2cc(-c3c(Cl)cccc3Cl)c(NC(=O)NC(C)(C)C)nc2n1` as the compound, how does the Potency read?
The Potency was inconclusive: 3.94 µM [inhibitor, full curve].

With `C[C@@]12O[C@@H](C[C@]1(O)CO)n1c3ccccc3c3c4c(c5c6ccccc6n2c5c31)CNC4=O` as the compound, how does the Potency read?
The Potency was active: 0.701 µM.

With `CNC(=O)c1cccc(-c2ccc3c(N4CCOC[C@@H]4C)nc(N4CCOC[C@@H]4C)nc3n2)c1` as the compound, how does the Potency read?
The Potency was inconclusive: 0.249 µM [inhibitor, full curve].

Which Potency does the source give for `N#Cc1c(C2CCNCC2)cc(-c2c(O)cccc2OCC2CC2)nc1N` here?
The Potency was inconclusive: 15.7 µM [inhibitor, partial curve].

Which Potency does the source give for `COc1cc2ncnc(Nc3ccc(F)c(Cl)c3)c2cc1NC(=O)/C=C/CN1CCCCC1` here?
The Potency was active: 19.8 µM.

Which Potency does the source give for `Cc1cnc(Nc2ccc(F)cc2Cl)nc1-c1c[nH]c(C(=O)NC(CO)c2cccc(Cl)c2)c1` (stereo not given) here?
Its Potency is inconclusive: 2.22 µM [inhibitor, partial curve].

Same assay, conditions: iHSKM muscle cells + IFN-b, HiBiT or CellTiter-Glo, 24 h; HiBiT; at 45.9 µM (top of the series)

With `Oc1ccc(Nc2nc(-c3ccc(Cl)cc3)cs2)cc1` as the compound, how does the activity change, negative = inhibition read?
The activity change, negative = inhibition was inactive: -38.1%.

Which activity change, negative = inhibition does the source give for `Cc1cnc(NC(=O)Nc2cc(Br)c(C)cc2OC[C@@H]2CNCCO2)cn1` here?
Its activity change, negative = inhibition is inactive: -8.35%.

With `Cn1cncc1[C@@](N)(c1ccc(Cl)cc1)c1ccc2c(c1)c(-c1cccc(Cl)c1)cc(=O)n2C` as the compound, how does the activity change, negative = inhibition read?
Its activity change, negative = inhibition is inactive: -17.7%.

With `C[C@H]1Oc2cc(cnc2N)-c2c(nn(C)c2C#N)CN(C)C(=O)c2ccc(F)cc21` as the compound, how does the activity change, negative = inhibition read?
The activity change, negative = inhibition was inactive: -24.3%.

Same assay, conditions: iHSKM muscle cells + IFN-b, HiBiT or CellTiter-Glo, 24 h; Viability

Which Potency does the source give for `CC[C@@H](C)Nc1cc(C(=O)NC2CC3CCC(C2)N3c2ccc(C(=O)C3CC3)cn2)c(C)cc1C(N)=O` (stereo not given in full) here?
Its Potency is inconclusive: 0.198 µM [cytotoxic, full curve, poor fit].

For `COc1cccc2cc(-c3nc(C4CCC(C(=O)O)CC4)n4ncnc(N)c34)[nH]c12` (stereo not given), which Potency is on record?
The Potency was inconclusive: 3.52 µM [cytotoxic, full curve].

For `O=C(Nc1cc(C(F)(F)F)cc(C(F)(F)F)c1)c1cc(Cl)ccc1O`, which Potency is on record?
Its Potency is inconclusive: 14 µM [cytotoxic, partial curve].

With `COc1cc2nc(-c3cc(F)ccc3O)nc(N[C@@H]3CNC[C@H]3C(C)(C)O)c2cc1OC` as the compound, how does the Potency read?
Its Potency is active: 31.3 µM.

Which Potency does the source give for `C=CC(=O)Nc1ccc2ncnc(Nc3ccc(OCc4cccc(F)c4)c(Cl)c3)c2c1` here?
Its Potency is inconclusive: 14 µM [cytotoxic, partial curve].

For `C=CC(=O)Nc1cc(Nc2nccc(-c3cn(C)c4ccccc34)n2)c(OC)cc1N(C)CCN(C)C`, which Potency is on record?
The Potency was inconclusive: 27.9 µM [cytotoxic, partial curve, poor fit].

Which Potency does the source give for `c1cc(-c2cnn3cc(-c4ccc(N5CCNCC5)cc4)cnc23)c2cccnc2c1` here?
Its Potency is inconclusive: 44.3 µM [cytotoxic, single point].

For `Cc1c(C(=O)N2CCOc3ccc(-c4ccc(N)nc4)cc3C2)ccc(S(C)(=O)=O)c1F`, which Potency is on record?
Its Potency is inconclusive: 7.87 µM [cytotoxic, partial curve, poor fit].

For `c1cc(-c2cnn3cc(-c4ccc(OCCN5CCCCC5)cc4)cnc23)ccn1`, which Potency is on record?
The Potency was inconclusive: 27.9 µM [cytotoxic, partial curve].

Which Potency does the source give for `O=C(Cc1ccc(-c2ccc(OCCN3CCOCC3)cc2)cn1)NCc1ccccc1` here?
Its Potency is inconclusive: 0.394 µM [cytotoxic, full curve].

Which Potency does the source give for `CN1CCN(c2ccc(C(=O)Nc3n[nH]c4ccc(Cc5cc(F)cc(F)c5)cc34)c(NC3CCOCC3)c2)CC1` here?
The Potency was active: 27.9 µM.

Which Potency does the source give for `CCCCCCCCc1ccc(CCC(N)(CO)CO)cc1` here?
The Potency was inconclusive: 49.7 µM [cytotoxic, single point].

Which Potency does the source give for `CCN(CC)CCCCNc1ncc2cc(-c3c(Cl)cccc3Cl)c(NC(=O)NC(C)(C)C)nc2n1` here?
The Potency was inconclusive: 7.87 µM [cytotoxic, partial curve].

Which Potency does the source give for `CNC(=O)c1cccc(-c2ccc3c(N4CCOC[C@@H]4C)nc(N4CCOC[C@@H]4C)nc3n2)c1` here?
Its Potency is inconclusive: 0.701 µM [cytotoxic, full curve].

Which Potency does the source give for `COc1cc(N2CCC(N)CC2)ccc1Nc1ncc(Cl)c(-c2c[nH]c3ccccc23)n1` here?
Its Potency is inconclusive: 0.394 µM [cytotoxic, full curve].

With `Cc1cnc(Nc2ccc(CN3CCOCC3)cc2)nc1Nc1cccc(S(=O)(=O)NC(C)(C)C)c1` as the compound, how does the Potency read?
The Potency was inconclusive: 17.6 µM [cytotoxic, partial curve].

Which Potency does the source give for `COc1cc2ncnc(Nc3ccc(F)c(Cl)c3)c2cc1NC(=O)/C=C/CN1CCCCC1` here?
Its Potency is inconclusive: 24.9 µM [cytotoxic, single point].

Which Potency does the source give for `Cc1cnc(Nc2ccc(F)cc2Cl)nc1-c1c[nH]c(C(=O)NC(CO)c2cccc(Cl)c2)c1` (stereo not given) here?
Its Potency is inconclusive: 0.249 µM [cytotoxic, full curve, poor fit].

Same assay, conditions: iHSKM muscle cells + IFN-b, HiBiT or CellTiter-Glo, 24 h; Viability; at 45.9 µM (top of the series)

For `Cc1cnc(NC(=O)Nc2cc(Br)c(C)cc2OC[C@@H]2CNCCO2)cn1`, which activity change, negative = inhibition is on record?
Its activity change, negative = inhibition is inactive: -14.9%.

Which activity change, negative = inhibition does the source give for `CNC(=O)c1cc(Oc2ccc(NC(=O)Nc3cc(C(C)(C)C)nn3-c3ccc4ncccc4c3)c(F)c2)ccn1` here?
The activity change, negative = inhibition was inactive: 26.8%.

For `C[C@@]12O[C@@H](C[C@]1(O)CO)n1c3ccccc3c3c4c(c5c6ccccc6n2c5c31)CNC4=O`, which activity change, negative = inhibition is on record?
The activity change, negative = inhibition was inactive: -0.759%.
